Data reported in the supplement of paper PMC9446081.
In all, about 39,000 compounds went through this assay and about 220 (0.56%) showed activity. This is one part of the list.

What follows are compounds tested on Escherichia coli K-12 BW25113 (assay: relative growth (OD600 normalised to plate interquartile mean) (fraction); higher = less growth inhibition, active = 0.2 or less). Conditions: 50 µM; LB; incubation time: overnight (16-24 h).
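Note: static incubation at 37 °C against the wild-type strain, values averaged over two biological replicates.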

Question: With `O=C(O)CCC(=O)c1ccc(-c2ccccc2)cc1` as the compound, how does the relative growth read?
Answer: inactive: 1.03

Question: For `C=CC1=C(C(=O)O)N2C(=O)C(NC(=O)C(=NO)c3csc(N)n3)C2SC1` (configuration not stated), which relative growth is on record?
Answer: active: 0.05

Question: How did the relative growth turn out when `C[C@H](CO)N1C[C@H](C)[C@@H](CN(C)Cc2ccc(Cl)c(Cl)c2)Oc2ccc(NC(=O)Nc3ccc(C(F)(F)F)cc3)cc2CC1=O` was run?
Answer: inactive: 1.02

Question: For `O=C(C[C@H]1CC[C@H](NC(=O)Cc2ccccn2)[C@@H](CO)O1)NCCCN1CCOCC1`, which relative growth is on record?
Answer: inactive: 1.01

Question: `Cc1ccc(S(=O)(=O)Nc2ccc3c(c2)CC(=O)N([C@H](C)CO)C[C@H](C)[C@H](CN(C)Cc2ccncc2)O3)cc1` was tested. Which relative growth did it give?
Answer: inactive: 0.981

Question: Which relative growth does the source give for `Cc1ccc(S(=O)(=O)N(C)C[C@H]2Oc3ccc(NS(C)(=O)=O)cc3C(=O)N([C@H](C)CO)C[C@@H]2C)cc1` here?
Answer: inactive: 0.977

Question: With `COc1ncccc1N` as the compound, how does the relative growth read?
Answer: inactive: 1.01

Question: With `C[C@@H]1COCS(=O)(=O)N1` as the compound, how does the relative growth read?
Answer: inactive: 0.949

Question: For `O=C(N[C@H]1CC=CC[C@H](CC(=O)N(CCO)Cc2ccccc2)C(=O)N[C@@H](Cc2c[nH]c3ccccc23)COC1=O)OCC1c2ccccc2-c2ccccc21`, which relative growth is on record?
Answer: inactive: 1.01

Question: How did the relative growth turn out when `C[C@@H]1CN([C@H](C)CO)C(=O)c2cc(NC(=O)c3ccncc3)ccc2O[C@@H](C)CCCCO[C@H]1CN(C)C(=O)Nc1ccc2c(c1)OCO2` was run?
Answer: inactive: 1

Question: How did the relative growth turn out when `C[C@H]1CN([C@@H](C)CO)C(=O)c2cccc(NC(=O)Nc3ccc(F)cc3)c2O[C@H]1CN(C)Cc1ccc(Cl)c(Cl)c1` was run?
Answer: inactive: 0.998

Question: With `CC1(C)CCC2(C)CCC3(C)C(=CCC4C5(C)CCC(OC(=O)c6ccccc6)C(C)(C)C5CCC43C)C2C1` (stereo not drawn) [beta-AMYRIN BENZOATE] as the compound, how does the relative growth read?
Answer: inactive: 0.896

Question: For `Cc1noc(C)c1NC(=O)N(C)C[C@@H]1Oc2ccc(NS(C)(=O)=O)cc2CC(=O)N([C@@H](C)CO)C[C@@H]1C`, which relative growth is on record?
Answer: inactive: 0.883

Question: Which relative growth does the source give for `C[C@@H]1CN([C@@H](C)CO)C(=O)c2cc(NC(=O)Cc3ccccc3)ccc2O[C@@H](C)CCCCO[C@@H]1CN(C)C(=O)C1CCCCC1` here?
Answer: inactive: 1.02

Question: With `C[C@@H]1CN([C@H](C)CO)C(=O)c2cc(NC(=O)Nc3ccccc3)ccc2O[C@H]1CN(C)C(=O)Nc1ccc(C(F)(F)F)cc1` as the compound, how does the relative growth read?
Answer: inactive: 0.993

Question: Which relative growth does the source give for `Cc1noc(C)c1NC(=O)N(C)C[C@@H]1OCCCC[C@H](C)Oc2ccc(NS(=O)(=O)c3ccc(F)cc3)cc2C(=O)N([C@H](C)CO)C[C@@H]1C` here?
Answer: inactive: 0.996

Question: For `C[C@@H]1CCCCO[C@@H](CN(C)CC2CC2)[C@H](C)CN([C@H](C)CO)C(=O)c2cc(NS(C)(=O)=O)ccc2O1`, which relative growth is on record?
Answer: inactive: 1.03

Question: `CN1C(=O)c2cc(NC(=O)c3cnccn3)ccc2OC[C@@H]2O[C@H](CC(=O)N[C@H]3CCN(Cc4ccccc4)C3)CC[C@H]21` was tested. Which relative growth did it give?
Answer: inactive: 0.978

Question: `C[C@H](CO)N1C[C@H](C)[C@@H](CN(C)S(=O)(=O)c2cn(C)cn2)Oc2ccc(NS(=O)(=O)c3ccc(Cl)cc3)cc2CC1=O` was tested. Which relative growth did it give?
Answer: inactive: 1

Question: Which relative growth does the source give for `C[C@@H]1CCCCO[C@@H](CN(C)Cc2ccc(C(F)(F)F)cc2)[C@H](C)CN([C@H](C)CO)C(=O)c2cc(NS(=O)(=O)c3ccc(F)cc3)ccc2O1` here?
Answer: inactive: 0.982

Question: With `COc1ccc(S(=O)(=O)Nc2ccc3c(c2)C(=O)N([C@@H](C)CO)C[C@H](C)[C@@H](CN(C)C(=O)Nc2ccc(F)cc2)OCCCC[C@@H](C)O3)cc1` as the compound, how does the relative growth read?
Answer: inactive: 0.933

Question: With `C[C@H]1CN([C@@H](C)CO)C(=O)c2cccc(NS(=O)(=O)c3ccc(F)cc3)c2O[C@H]1CN(C)C(=O)Nc1ccc(C(F)(F)F)cc1` as the compound, how does the relative growth read?
Answer: inactive: 0.998

Question: For `CC(C)NC(=O)N(C)C[C@@H]1OCCCC[C@@H](C)Oc2ccc(NC(=O)C3CCCCC3)cc2C(=O)N([C@@H](C)CO)C[C@@H]1C`, which relative growth is on record?
Answer: inactive: 0.998

Question: `COc1ccc(S(=O)(=O)Nc2ccc3c(c2)C(=O)N([C@H](C)CO)C[C@@H](C)[C@H](CN(C)C(=O)Nc2c(C)noc2C)OCCCC[C@@H](C)O3)cc1` was tested. Which relative growth did it give?
Answer: inactive: 0.998

Question: `CC1(C)O[C@@]2(C)CC[C@@H]1C[C@@H]2O[C@H]1O[C@@H](CO)[C@@H](O)[C@@H](O)[C@@H]1O` was tested. Which relative growth did it give?
Answer: inactive: 0.999

Question: With `C[C@H]1CN([C@@H](C)CO)C(=O)c2cccc(NS(C)(=O)=O)c2O[C@H]1CN(C)S(C)(=O)=O` as the compound, how does the relative growth read?
Answer: inactive: 0.981

Question: For `C[C@@H]1CN([C@H](C)CO)C(=O)Cc2cc(NS(=O)(=O)c3cn(C)cn3)ccc2O[C@H]1CN(C)Cc1ccc2c(c1)OCO2`, which relative growth is on record?
Answer: inactive: 1.01

Question: `C[C@@H]1CN([C@H](C)CO)S(=O)(=O)c2ccc(C#CC(C)(C)O)cc2O[C@@H]1CN(C)Cc1ccncc1` was tested. Which relative growth did it give?
Answer: inactive: 0.987

Question: `O=C(O)C[C@@H]1CC[C@@H]2[C@H](COC[C@H](O)CN2S(=O)(=O)c2ccc(F)cc2)O1` was tested. Which relative growth did it give?
Answer: inactive: 1

Question: How did the relative growth turn out when `C[C@@H]1CN([C@@H](C)CO)C(=O)c2cccc(NC(=O)Nc3ccc(F)cc3)c2O[C@@H]1CN(C)Cc1ccc(Cl)c(Cl)c1` was run?
Answer: inactive: 1.01

Question: `COc1ccc(NC(=O)Nc2ccc3c(c2)C(=O)N([C@@H](C)CO)C[C@H](C)[C@@H](CN(C)C(=O)CCC(F)(F)F)OCCCC[C@@H](C)O3)cc1` was tested. Which relative growth did it give?
Answer: inactive: 1.03

Question: `C[C@H](CO)N1C[C@H](C)[C@@H](CN(C)CC2CCCCC2)Oc2ccc(NC(=O)Nc3ccc(F)cc3)cc2CC1=O` was tested. Which relative growth did it give?
Answer: inactive: 0.973

Question: For `Cc1noc(C)c1NC(=O)Nc1ccc2c(c1)C(=O)N([C@@H](C)CO)C[C@@H](C)[C@@H](CN(C)C(=O)C1CCCCC1)OCCCC[C@H](C)O2`, which relative growth is on record?
Answer: inactive: 0.991

Question: `COc1ccc(S(=O)(=O)N(C)C[C@H]2Oc3c(NS(=O)(=O)c4cccs4)cccc3C(=O)N([C@@H](C)CO)C[C@@H]2C)cc1` was tested. Which relative growth did it give?
Answer: inactive: 1.01

Question: For `C[C@@H]1CN([C@H](C)CO)C(=O)c2cccc(NC(=O)c3ccc(-c4nccs4)cc3)c2O[C@H]1CN(C)S(=O)(=O)c1ccc(Cl)cc1`, which relative growth is on record?
Answer: inactive: 1.02

Question: Which relative growth does the source give for `CC(=O)N1C[C@@H]2C(=O)N(C)C3(CCN(S(=O)(=O)Cc4ccccc4)CC3)[C@H]2C1` here?
Answer: inactive: 0.958

Question: `C[C@H]1CCCCO[C@H](CN(C)C(=O)C2CCCCC2)[C@@H](C)CN([C@@H](C)CO)C(=O)c2cc(NC(=O)Nc3ccc(C(F)(F)F)cc3)ccc2O1` was tested. Which relative growth did it give?
Answer: inactive: 1.06
